T1: human CD25 on transduced cells (human, UniProt P01589 22-272)
T1 sequence (looked up): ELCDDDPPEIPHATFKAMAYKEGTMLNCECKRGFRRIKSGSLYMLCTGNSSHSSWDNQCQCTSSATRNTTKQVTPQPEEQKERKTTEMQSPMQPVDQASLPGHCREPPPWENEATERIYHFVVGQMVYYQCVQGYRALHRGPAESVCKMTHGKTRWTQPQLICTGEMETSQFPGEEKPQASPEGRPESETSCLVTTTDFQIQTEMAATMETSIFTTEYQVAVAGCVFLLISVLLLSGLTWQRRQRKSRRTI

B1: Z6 scFv-human IL2 (other)
chain: ASQVQLVQSGAEVKNPGASVKVSCKASGYAFTSYGISWVRQAPGQGLEWMGWISAYTRNTNYAQKFQGRVTLTTDTSTSTAYMELRSLRSDDTAIYYCARDARYSLGVGAFDVWGQGTMVTVSSGILGSGGGGSGGGGSGGGGSETTLTQSPAFMSATPGDKVSISCKASRDIDDDLNWYQQKPGEAAISIIQEATTLVPGIPPRFSGSGYGTDFTLTINNIESEDAAYYFCLQHDDVPYTFGQGTKLEIKSGILGSGSGSGSGS[gap - about 150 residues]AAAHHHHHHH
notes: scFv-cytokine fusion expressed in insect cells with baculovirus; also called Z6-IL2; Z6-1L2
B2: R5 scFv-human IL2 (other)
chain: ASQITLKESGPTLVKPTQTLTLTCSFSGFSLSFSGVGVAWIRQPPGKALEWLALIYWDDDKRYSPSLKSRLTITKDTSKNQVVLTMTNMDPLDTATYYCAHREWKAFGAFDIWGQGTMVTVSSGILGSGGGGSGGGGSGGGGSQPVLTQSPSASGTPGQRVTISCSGSSSNIGSNTVNWYQQLPGTAPKLLIYSNNQRPSGVPDRFSGSKSVTSASLAISGLQSEDEAEYYCATWDDSLNGAVFGGGTQLTVLSGILGSGSGSGSGS[gap - about 150 residues]AAAHHHHHHHH
notes: scFv-cytokine fusion expressed in insect cells with baculovirus; also called R5-IL2; R5-1L2

Molecular target: T1, human CD25 on transduced cells
Assay: cell-based or functional assay

Binder	increase of Wnt3a reporter activity (luciferase, HEK 293 STF cells transduced with CD25) [fold]	organoid growth (alamarBlue fluorescence) of CD25+ human colon organoids relative to IL-2 control [fold]
B1	41	9.4
B2	9.5	7.3

Source: patent publication US20200024338A1 (Stanford University, published 2020)
